Measurements published in PubChem BioAssay (NCATS).
Inconclusive results, whose numbers are uncertain, are shown with a selection of clear calls. Potencies of inconclusive entries are doubtful fits and often do not repeat. Calls of active or inactive are those of the source. Calls come from the whole dose curve; as a rule, active = well fitted curve in the direction sought with a large enough effect; inconclusive = small, poorly fitted or top-dose-only effect, or another doubt; inactive = no such curve, though single readings can be large; an effect the other way counts as inactive or inconclusive.

Assays:
[1] = biological target: Rap guanine nucleotide exchange factor 3 (Homo sapiens) (UniProt O95398); test: Confirmatory qHTS for antagonist of cAMP-regulated guanine nucleotide exchange factor 3 (EPAC1) (AID 1645880); conditions: EPAC1 Rap1B-BODIPY-GDP exchange, fluorescence; activity, negative = inhibition: at 115 µM (top of the series); note: nearly all actives have a fitted effect of over 55% in size;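 for activity, negative = inhibition: plate controls were DMSO only for no effect and full effect of the ATA control for full effect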
In short: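 Released BODIPY-GDP fluoresces less than Rap1-bound BODIPY-GDP; the signal is followed at 480/540 nm at 5-min intervals over 30 min, after 5 min at room temperature. Reactions contain 100 nM EPAC1, 250 nM RAP1B-BODIPY-GDP and 50 uM GDP; results are normalized to ATA and DMSO.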

[2] = biological target: Rap guanine nucleotide exchange factor 3 (Homo sapiens) (UniProt O95398); test: Counterscreen qHTS for agonist of cAMP-regulated guanine nucleotide exchange factor 3 (EPAC1) (AID 1645889); conditions: EPAC1 Rap1B-BODIPY-GDP exchange, fluorescence; activation: at 154 µM (top of the series) unless noted; note: nearly all actives have a fitted effect of over 40% in size; for activation: % of control where 0% means no effect
In short: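 Rap1B–BODIPY-GDP (250 nM) with 50 uM GDP; compounds pin-transferred to 9.74 nM–152 uM final (activator) or from 7.32 nM upwards (inhibitor). Fluorescence Ex/Em 480/540 nm read at 5 and 30 min, then after adding cAMP or buffer, at room temperature.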
Potency is the fitted concentration of half-maximal effect; tags give direction and shape of the fitted curve.

UniProt O95398, sequence (O95398 whole entry, looked up): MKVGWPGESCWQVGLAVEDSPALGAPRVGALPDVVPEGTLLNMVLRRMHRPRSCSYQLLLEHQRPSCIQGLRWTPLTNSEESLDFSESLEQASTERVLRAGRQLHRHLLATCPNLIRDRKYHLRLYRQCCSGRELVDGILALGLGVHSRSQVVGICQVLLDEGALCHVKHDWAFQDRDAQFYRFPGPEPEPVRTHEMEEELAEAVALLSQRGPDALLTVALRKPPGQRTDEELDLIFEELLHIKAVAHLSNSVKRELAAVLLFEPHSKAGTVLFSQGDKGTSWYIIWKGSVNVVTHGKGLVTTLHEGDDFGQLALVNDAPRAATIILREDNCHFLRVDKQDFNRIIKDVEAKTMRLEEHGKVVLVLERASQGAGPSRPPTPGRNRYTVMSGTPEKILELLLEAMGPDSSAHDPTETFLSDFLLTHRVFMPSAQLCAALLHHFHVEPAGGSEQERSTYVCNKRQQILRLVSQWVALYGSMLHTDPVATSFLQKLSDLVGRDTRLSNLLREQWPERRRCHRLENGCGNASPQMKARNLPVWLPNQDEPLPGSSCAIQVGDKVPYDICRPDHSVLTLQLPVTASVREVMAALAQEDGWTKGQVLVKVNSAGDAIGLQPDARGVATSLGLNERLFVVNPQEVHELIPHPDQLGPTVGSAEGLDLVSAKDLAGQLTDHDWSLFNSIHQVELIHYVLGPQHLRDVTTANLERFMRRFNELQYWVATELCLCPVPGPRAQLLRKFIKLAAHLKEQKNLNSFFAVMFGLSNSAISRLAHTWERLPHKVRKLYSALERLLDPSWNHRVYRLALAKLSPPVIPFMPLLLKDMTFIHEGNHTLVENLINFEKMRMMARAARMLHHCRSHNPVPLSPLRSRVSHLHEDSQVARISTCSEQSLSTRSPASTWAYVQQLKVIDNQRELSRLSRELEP

Row | SMILES | Potency [1] | Potency [2] | activation [2]
1 | COc1ccc(C=C(C(C)=O)C(=O)c2ccccc2)cc1 | inconclusive: 53.6 µM [inhibitor, partial curve, poor fit] | inconclusive: 89.1 µM [activator, single point] | 
2 | CC(C)N1CCc2c(sc(NC(=O)c3ccc(S(=O)(=O)N4CCc5ccccc54)cc3)c2C(N)=O)C1 | inconclusive: 84.9 µM [inhibitor, partial curve] | inactive | 
3 | CCOC(=O)c1sc(N=NC2=C(O)CCCC2=O)c(C(=O)OCC)c1C | active: 8.91 µM |  | inactive: 6.27% [at 30.8 µM]
4 | COc1ccc(NC(=O)c2cc(-c3cc(Cl)ccc3C)n[nH]2)cn1 | inconclusive: 84.9 µM [inhibitor, partial curve] | inconclusive: 8.91 µM [activator, partial curve, poor fit] | 
5 | COc1ccc(C(C)=O)cc1COc1ccc(F)cc1 | inactive |  | inactive: 4.32% [at 30.8 µM]
6 | CCCCOC(=O)CSc1nnc(-c2ccc(Cl)cc2Cl)o1 | inactive |  | inactive: 14.1% [at 30.8 µM]
7 | CCC(=O)NC(c1ccco1)c1cc(Cl)c2ccccc2c1O (stereo not drawn) | inconclusive: 84.9 µM [inhibitor, partial curve, poor fit] | inactive | 
8 | CCOC(=O)C1=CCN(S(=O)(=O)c2ccccc2Cl)C1c1ccc(Cl)c(Cl)c1 (stereo not drawn) | inconclusive: 39.8 µM [inhibitor, partial curve, poor fit] | inconclusive: 14.1 µM [activator, partial curve, poor fit] | 
9 | CC1(C(=O)NS(=O)(=O)c2cccc(F)c2)CCN1C(=O)C1(c2ccc(Cl)cc2)CCC1 (stereo not drawn) | active: 19 µM | inactive | 
10 | CC(C)(C)c1ccc(OCCC(=O)OCC(=O)Nc2ccc(N3CCOCC3)cc2)cc1 | inactive | inconclusive: 0.02 µM [activator, full curve, poor fit] | 
11 | CCOc1ccc(C(=O)N2CC(=O)Nc3ccc(C)cc3C2c2ccc(F)cc2)cc1OCC (stereo not drawn) | inconclusive: 75.7 µM [inhibitor, partial curve] |  | inconclusive: 82.9% [activator]
12 | CCCCNC(=O)CN1CCN(c2ncc(NC(=O)c3ccc(Cl)cc3)cc2C(=O)O)CC1 | inconclusive: 84.9 µM [inhibitor, single point] | inactive | 
13 | COc1ccc(OC)c(CNC(=O)CCCc2cn(C)c3ccccc23)c1 | inconclusive: 53.6 µM [inhibitor, partial curve, poor fit] | inconclusive: 1.26 µM [activator, full curve, poor fit] | 
14 | COc1cccc(/C=C2\SC(=S)N(C(Cc3ccccc3)C(=O)O)C2=O)c1 (stereo not drawn) | active: 47.8 µM | inactive | 
15 | Cc1nc(N(C)Cc2ccccc2)c2c(C)c(C)sc2n1 | inactive |  | inactive: 11.8% [at 30.8 µM]
16 | Cc1ccc(C(=O)c2cn(Cc3cccc(C)c3)c3nc(C)ccc3c2=O)cc1 | inconclusive: 84.9 µM [inhibitor, single point] | inconclusive: 11.2 µM [activator, full curve, poor fit] | 
17 | Clc1c(Cl)c(Cl)c2n[nH]nc2c1Cl | active: 75.7 µM | inactive | 
18 | Cc1ccc(-c2ccc(CCC(=O)O)n2-c2ccc(C(C)C)cc2)cc1 | active: 75.7 µM | inactive | 
19 | O=S(=O)(O)c1ccc(NN=Cc2ccccc2O)cc1 | inconclusive: 50.1 µM [inhibitor, partial curve, poor fit] |  | inactive: 20.1% [at 30.8 µM]
20 | Cc1ccc(CNC(=O)c2ccc3c(=O)[nH]c4c(C(=O)NCC5CCCO5)sc(=S)n4c3c2)cc1 (stereo not drawn) | active: 84.9 µM | inactive | 
21 | NC(=O)C1CCN(C(=O)c2ccc3c(=O)n(Cc4cccc(Br)c4)c(=S)[nH]c3c2)CC1 | inconclusive: 50.1 µM [inhibitor, partial curve, poor fit] |  | inconclusive: 50.1% [activator] [at 30.8 µM]
22 | COC(=O)c1ccc2nc(-c3ccc(Cl)cc3)c(Cc3cccc(F)c3)n2c1 | inactive | inconclusive: 0.0708 µM [activator, full curve, poor fit] | 
23 | COc1cccc2c1OC1(C)CC2/C(=C(\C)O)C(=O)N1 (stereo not drawn) | inactive | inactive | 
24 | NC(=O)[C@H]1CC2(CC(c3cccc(NC(=O)[C@H]4CCC(=O)N4)c3)=NO2)CN1C(=O)c1ccccc1 (stereo partly drawn) | inconclusive: 21.3 µM [inhibitor, full curve] | inconclusive: 35.5 µM [activator, partial curve] | 
